The campaign covered roughly 310,000 compounds. About 2,200 (0.71%) showed an effect of 50% or more. Effects have a minus sign here. Some of the results follow.
molecular target: human ether-à-go-go-related gene (hERG) potassium channel (human, UniProt Q12809); experiment: primary screen, population patch clamp on CHO cells stably expressing hERG
Sequence (Q12809 whole entry, looked up): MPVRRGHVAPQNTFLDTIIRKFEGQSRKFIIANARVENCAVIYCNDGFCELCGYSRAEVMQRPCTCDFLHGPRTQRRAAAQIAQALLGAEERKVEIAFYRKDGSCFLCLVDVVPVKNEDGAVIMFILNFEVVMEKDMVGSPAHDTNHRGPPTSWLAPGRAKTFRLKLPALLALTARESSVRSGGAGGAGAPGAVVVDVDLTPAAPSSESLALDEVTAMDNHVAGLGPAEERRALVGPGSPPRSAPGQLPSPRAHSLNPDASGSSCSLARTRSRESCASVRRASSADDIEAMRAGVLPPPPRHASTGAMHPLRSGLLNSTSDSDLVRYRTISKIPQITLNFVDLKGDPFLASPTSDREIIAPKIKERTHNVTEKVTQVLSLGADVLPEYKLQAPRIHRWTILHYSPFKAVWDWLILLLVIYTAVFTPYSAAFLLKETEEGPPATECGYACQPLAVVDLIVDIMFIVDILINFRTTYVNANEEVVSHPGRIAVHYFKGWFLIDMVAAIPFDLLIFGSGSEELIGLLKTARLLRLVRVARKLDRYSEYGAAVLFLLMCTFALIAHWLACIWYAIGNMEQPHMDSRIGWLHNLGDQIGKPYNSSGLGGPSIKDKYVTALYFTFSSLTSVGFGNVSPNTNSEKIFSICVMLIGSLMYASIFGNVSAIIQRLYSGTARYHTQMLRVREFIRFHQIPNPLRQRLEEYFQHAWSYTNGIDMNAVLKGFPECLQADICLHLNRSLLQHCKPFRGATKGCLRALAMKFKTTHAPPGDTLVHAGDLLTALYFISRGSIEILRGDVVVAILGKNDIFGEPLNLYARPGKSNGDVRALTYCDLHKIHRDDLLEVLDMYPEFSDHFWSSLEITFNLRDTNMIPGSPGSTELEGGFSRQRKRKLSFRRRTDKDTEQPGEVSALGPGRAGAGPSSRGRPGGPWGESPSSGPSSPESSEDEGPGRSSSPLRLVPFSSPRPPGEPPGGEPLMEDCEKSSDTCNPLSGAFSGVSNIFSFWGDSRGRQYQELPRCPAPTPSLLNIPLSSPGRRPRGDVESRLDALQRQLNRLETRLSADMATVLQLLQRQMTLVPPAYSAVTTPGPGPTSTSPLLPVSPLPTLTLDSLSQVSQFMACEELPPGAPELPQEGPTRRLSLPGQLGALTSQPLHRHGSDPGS

| SMILES | hERG current change (%, negative = inhibition) at 1uM |
| --- | --- |
| CCOP(=O)(OCC)C(O)c1ccc(N(C)C)cc1 (centres unmarked) | 8.66% |
| COC(=O)c1ccc(NC(=S)NC2CCCCC2C)cc1 (centres unmarked) | 8.46% |
| CCOc1ccccc1C1c2cc3c(cc2OC(C)(N2CCCC2)C1C)OCO3 (centres unmarked) | -5.47% |
| Cc1cc2oc(=O)cc(CN3CCN(S(=O)(=O)c4cccs4)CC3)c2cc1C(C)C | 4.78% |
| COc1ccc(C)cc1S(=O)(=O)N1CCC(C(=O)N2CCOCC2)CC1 | -3.13% |
| COC(=O)CC1=C(C)C(=O)CC2C(C)(C)CCCC12C (centres unmarked) | 9.52% |
| O=c1[nH]cnc2c1ncn2[C@H]1CC[C@@H](CO)O1 | 11.9% |
| CCC(C(=O)OCC(=O)Nc1c(C)nn(-c2ccccc2)c1C)c1ccccc1 (centres unmarked) | 3.56% |
| O=C(Nc1ccc(N2CCN(C(=O)c3cccs3)CC2)cc1)c1cccnc1 | 10.5% |
| COc1ccc(N2C(=O)CN=C2Nc2nc(C)cc(C)n2)cc1OC | -7.93% |
| Cc1oc2c(C)c3oc(=O)c(CC(=O)N[C@@H](CCCNC(N)=O)C(=O)O)c(C)c3cc2c1C | 11% |
| Cc1cc(C)c(C)c(OCCCCn2cnc3ccccc3c2=O)c1 | 5.31% |
| Cc1ccc2c(Cl)cc(Cl)c(OCC(=O)Nc3cc(S(=O)(=O)N(C)C)ccc3C)c2n1 | 15.1% |
| O=C1NC(Cc2c[nH]c3ccccc23)C(=O)N1CCOc1ccc(F)cc1 (centres unmarked) | 4.9% |
| COc1ccccc1C1C(C#N)=C(N)Oc2cc(C)n(CCCn3ccnc3)c(=O)c21 (centres unmarked) | 9.78% |
| O=C(CSc1c2c(nc3ccc(Cl)cc13)CCCC2)NCc1ccco1 | -6.82% |
| Cn1c(Cl)nc2ccccc21 | 1.57% |
| COc1ccc([N+](=O)[O-])cc1NC(=O)C(C)OC(=O)/C=C/c1ccco1 (centres unmarked) | 0.263% |
| CC(=O)Nc1ccccc1C(=O)C(=O)Nc1cccc(Br)c1 | 5.75% |
| COc1nc(N/N=C/c2cc3c(cc2Br)OCO3)nc(N2CCOCC2)n1 | 2.27% |
| C=CCn1c(SCC(=O)c2[nH]c(C)c(C(=O)OCC)c2C)nc2scc(-c3ccc(OC)c(OC)c3)c2c1=O | 19.1% |
| Cc1ccc(C(=O)Nc2sc3c(c2C(=O)O)CCCC3)o1 | 3.28% |
| COc1ccccc1C(=O)NCCC(=O)Nc1ccc(OC(F)(F)F)cc1 | 16.2% |

| SMILES | hERG current change (%, negative = inhibition) at 1uM |
| --- | --- |
| CC1(C)C(=O)Nc2ccccc2N1C(=O)COc1ncnc2c(Cl)cc(Cl)cc12 | 3.26% |
| C/C(CC(=O)Nc1ccccn1)=N\NC(=O)c1ccccc1 | 6.72% |
| Cc1ccc2nc(/C(C#N)=C\c3ccc(N4CCOCC4)o3)[nH]c2c1 | 0.139% |
| CC(=O)c1cccc(NS(C)(=O)=O)c1 | 3.77% |
| Cc1ccc(NNC(=O)c2c(F)cccc2Cl)cc1Cl | 9.42% |
| CCCCOc1ccc(-c2cn3ccccc3n2)cc1[N+](=O)[O-] | 23% |
| CCN(CC)CCN(C)c1ccc(N2C(=O)C3CC=CCC3C2=O)cc1[N+](=O)[O-] (centres unmarked) | 11.5% |
| Cc1ccc(C)c(S(=O)(=O)N/N=C/c2ccc(C(=O)O)cc2)c1 | 4.42% |
| OC1O[C@H](c2ccc3c(c2)OCO3)[C@H]2CO[C@H](c3ccc4c(c3)OCO4)[C@@H]12 (some centres unmarked) | 3.63% |
| O=C(OCc1c(Cl)cccc1Cl)c1ccncc1 | 2.93% |
| O=C(O)c1ccc(N/N=C/c2cc3c(cc2[N+](=O)[O-])OCO3)cc1 | 17.6% |
| Cc1c(Cl)cccc1NCC(=O)Nc1ccc(Cl)cc1F | 9.25% |
| COc1ccc(-c2nn(-c3ccccc3)cc2C(=O)NCCCn2ccnc2)cc1 | -3.1% |
| O=C(c1ccc(-c2ccccc2)cc1)N1CCC(C(=O)N2CCCC2)CC1 | -0.047% |
| Cc1cc2nc(CO)[nH]c2cc1C | 13.6% |
| COCCOc1nc2ccccc2nc1C | 6.8% |
| CN1CCN(S(=O)(=O)c2ccc(Oc3cccc(C(F)(F)F)c3)nc2)CC1 | 2.12% |
| CCCc1cc(=O)n2[nH]c(CCc3ccccc3)nc2n1 | 15.2% |
| Clc1ccc(-c2n[nH]c3c2CCCC3)cc1 | -5.7% |
| CC(=O)NC1C(=O)N=C(SCC(=O)NC2CCCCC2)NC1=O (centres unmarked) | 9.5% |
| Cc1ccc(-c2nnc(N)s2)cc1 | 14.4% |
| COc1cccc2[nH]c(C(=O)NC(C)c3ccccc3)cc12 (centres unmarked) | 6.92% |
| O=C(CSc1nc2ccccc2c(=O)n1Cc1ccco1)NCc1ccco1 | -40.8% |

| SMILES | hERG current change (%, negative = inhibition) at 1uM |
| --- | --- |
| CCOc1ccc(OCC)c(-c2c(=O)n(OCc3ccc(Cl)cc3)c3ccccc3[n+]2[O-])c1 | 11.9% |
| CNC(=O)/C(C#N)=C/c1cn(CC(=O)NCc2ccco2)c2ccccc12 | 19.1% |
| Nc1nc(N2CCOCC2)nc2ccccc12 | -8.34% |
| COc1ccc(N2C(=O)C3CC=C(Cl)CC3C2=O)cc1 (centres unmarked) | 15% |
| CCCCN=C(C)C1=C(O)CSC1=O | 15.8% |
| O=C(COc1ccc(Cl)cc1)Nc1ccc(N2CCN(C(=O)c3ccco3)CC2)cc1 | -7.88% |
| O=C(CSc1nnc(Cc2cccs2)n1Cc1ccco1)Nc1ccc(Cl)cc1Cl | -4.66% |
| Cc1onc(-c2ccccc2)c1C(=O)NC(=S)NNC(=O)c1ccccc1O | 11.9% |
| O=c1oc2ccccc2c(O)c1[C@H]1c2ccc(O)cc2Oc2c1c(=O)oc1ccccc21 | 8.39% |
| CCOc1ccc(NC(=S)N2CCn3c(nc4ccccc43)C2)cc1 | -1.35% |
| COC(=O)Nc1ccc(S(=O)(=O)N2CCCC(C(=O)NC3CCCCC3)C2)cc1 (centres unmarked) | 7.06% |
| COc1ccc(CNc2nc3c(c(=O)n(Cc4ccc(Br)cc4)c(=O)n3C)n2C)cc1 | -10.5% |
| N#CC(C(=O)Nc1cccc(Cl)c1)=C1Nc2ccccc2N1 | 12.9% |
| O=C(C1CCCN1S(=O)(=O)c1cccc2cccnc12)N1CCn2c1nc1ccccc12 (centres unmarked) | -8.14% |
| Cc1cc(C)c(OCC(=O)N/N=C/c2ccco2)c(C)c1 | 5.53% |
| CC1(C)CC(CC(=O)O)(c2ccccc2)CCO1 (centres unmarked) | 7.91% |
| Cc1ccc(S(=O)(=O)N2CCOC2C(Cl)(Cl)Cl)cc1 (centres unmarked) | 8.91% |
| Cc1cc(-c2ccccc2)nc2c(Br)c(=O)[nH]n12 | 14.9% |
| O=C(C[n+]1ccccc1)Nc1ccccc1 | 13.1% |
| COc1ccc(/C=N/NC(=O)c2ccncc2)cc1COc1ccc(NC(C)=O)cc1 | -1.38% |
| Cc1ccc2nc(-c3ccc(NC(=S)NC4CC(C)(C)NC(C)(C)C4)cc3)sc2c1 | 13.1% |
| Cc1oc(C)c(C(=O)NCCCC(=O)O)c1C(=O)NCCCC(=O)O | 16.6% |
| CCCCOc1ccc(/C(O)=C2/C(=O)C(=O)N(Cc3cccnc3)C2c2ccncc2)c(C)c1 (centres unmarked) | 1.71% |

| SMILES | hERG current change (%, negative = inhibition) at 1uM |
| --- | --- |
| CCNc1nc(N)nc(-c2cc(Cl)ccc2O)n1 | 24.8% |
| O=C(C1CCCCCC1)N1CC[C@@H](N2CCC(O)CC2)[C@H](O)C1 | 13.2% |
| O=c1nc(-c2ccccc2)c2ccccc2[nH]1 | 5.89% |
| Cc1ccc(N(CC(O)CN2C(=O)NC(C)(C)C2=O)S(=O)(=O)c2ccc(C)cc2)cc1 (centres unmarked) | 7.27% |
| CCOC(=O)c1ccc(Nc2ncnc3ccc(C)cc23)cc1 | 8.61% |
| O=C(Cc1ccccc1)N1CCCC(c2nc(-c3ccc(S(=O)(=O)N4CCCC4)cc3)no2)C1 (centres unmarked) | 2.29% |
| O=C(COC(=O)CCc1ccccc1)Nc1ncc(Cl)cc1Cl | -3.09% |
| Cc1ccc(NC(=S)Nc2cccc3cnccc23)c(C)c1 | 25.6% |
| CCCOC(=O)/C(C)=N\NC(=O)c1ccco1 | 13.6% |
| Nc1nc(N)nc(-c2cc([N+](=O)[O-])ccc2O)n1 | -1.87% |
| Cc1cccc(NC(=O)COc2coc(CN3CCN(c4ccccc4)CC3)cc2=O)c1 | 9.66% |
| Cc1ccc(-n2c(SCC(=O)Nc3cccc(C)c3)nc3c(oc4ccccc43)c2=O)cc1 | 16.5% |
| O=c1oc2ccccc2c2c1nnn2CCO | 14.4% |
| Cc1ccc(NC(=O)COC(=O)C2COc3ccccc3O2)cc1S(=O)(=O)N1CCOCC1 (centres unmarked) | 14.9% |
| O=C(NC1CCCC1)C(c1ccccn1)N(C(=O)c1csnn1)c1ccccc1Br (centres unmarked) | 1.68% |
| CCN1CCN(C(=O)NC2CCCCC2)CC1.O=C(O)C(=O)O | 14.6% |
| CCN(CC)c1ccc(/C=N/N2C(=O)c3ccccc3C2=O)cc1 | 12.6% |
| CC1Cc2ccccc2N1C(=O)COC(=O)Cn1cnc2ccccc2c1=O (centres unmarked) | 6.3% |
| COCCN=c1scc(-c2cccs2)n1/N=C(\C)c1ccco1 | 3.08% |
| COc1ccc(N(C(=O)COc2ccccc2)C2C=CS(=O)(=O)C2)cc1 (centres unmarked) | -3.91% |

Source: paper PMC4336329 (PLoS ONE, 2015)
